Test results as given in the supplement of paper PMC8728848.
The other results are listed elsewhere or left out.

Assays:
Assay in all cases: glycan array binding signal (z-score within array); higher = stronger binding
Settings in all cases: glycan notation: IUPAC condensed, linker removed
Neu5Ac(a2-8)Neu5Ac = molecular target: Neu5Ac(a2-8)Neu5Ac
Summary of the method: (§1)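 The binding signal is a Z-score computed within each array and averaged over linkers. Arrays of the same protein sequence at different concentrations or buffers were also averaged together. Data originate from 3228 arrays in the Consortium for Functional Glycomics database, kept only where the protein sequence was available.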

[1] = molecular target: Neu5Ac(a2-8)Neu5Ac(a2-3)Gal(b1-3)GalNAc(b1-4)[Neu5Ac(a2-3)]Gal(b1-4)Glc
Summary of the method: as §1

[2] = molecular target: Neu5Ac(a2-8)Neu5Ac(a2-3)Gal(b1-3)GalNAc(b1-4)[Neu5Ac(a2-8)Neu5Ac(a2-3)]Gal(b1-4)Glc
Summary of the method: as §1

[3] = molecular target: Neu5Ac(a2-8)Neu5Ac(a2-3)Gal(b1-4)Glc
Summary of the method: as §1

[4] = molecular target: Neu5Ac(a2-8)Neu5Ac(a2-3)Gal(b1-4)GlcNAc
Summary of the method: as §1

[5] = molecular target: Neu5Ac(a2-8)Neu5Ac(a2-3)[Gal(b1-3)GalNAc(b1-4)]Gal(b1-4)Glc
Summary of the method: as §1

[6] = molecular target: Neu5Ac(a2-8)Neu5Ac(a2-3)[GalNAc(b1-4)]Gal(b1-4)Glc
Summary of the method: as §1

[7] = molecular target: Neu5Ac(a2-8)Neu5Ac(a2-8)Neu5Ac
Summary of the method: as §1

[8] = molecular target: Neu5Ac(a2-8)Neu5Ac(a2-8)Neu5Ac(a2-3)Gal(b1-4)Glc
Summary of the method: as §1

[9] = molecular target: Neu5Ac(a2-8)Neu5Ac(a2-8)Neu5Ac(a2-3)[Gal(b1-3)GalNAc(b1-4)]Gal(b1-4)Glc
Summary of the method: as §1

[10] = molecular target: Neu5Ac(a2-8)Neu5Ac(a2-8)Neu5Ac(a2-3)[GalNAc(b1-4)]Gal(b1-4)Glc
Summary of the method: as §1

[11] = molecular target: Neu5Ac(a2-8)Neu5Ac(a2-8)Neu5Ac(a2-8)Neu5Ac(a2-3)[GalNAc(b1-4)]Gal(b1-4)Glc
Summary of the method: as §1

[12] = molecular target: Neu5Ac(a2-8)Neu5Gc(a2-3)Gal(b1-4)GlcNAc
Summary of the method: as §1

[13] = molecular target: Neu5Ac(b2-6)Gal(b1-4)GlcNAc
Summary of the method: as §1

Neu5Ac(b2-6)GalNAc = molecular target: Neu5Ac(b2-6)GalNAc
Summary of the method: as §1

[14] = molecular target: Neu5Ac9Ac(a2-3)Gal(b1-3)GlcNAc
Summary of the method: as §1

[15] = molecular target: Neu5Ac9Ac(a2-3)Gal(b1-4)GlcNAc
Summary of the method: as §1

[16] = molecular target: Neu5Ac9Ac(a2-6)Gal(b1-4)GlcNAc
Summary of the method: as §1

[17] = molecular target: Neu5Gc(a2-3)Gal(b1-3)GlcNAc
Summary of the method: as §1

[18] = molecular target: Neu5Gc(a2-3)Gal(b1-3)[Fuc(a1-4)]GlcNAc
Summary of the method: as §1

Neu5Gc(a2-3)Gal(b1-4)Glc = molecular target: Neu5Gc(a2-3)Gal(b1-4)Glc
Summary of the method: as §1

[19] = molecular target: Neu5Gc(a2-3)Gal(b1-4)GlcNAc
Summary of the method: as §1

[20] = molecular target: Neu5Gc(a2-3)Gal(b1-4)GlcNAc(b1-3)Gal(b1-4)GlcNAc(b1-2)Man(a1-3)[Neu5Gc(a2-3)Gal(b1-4)GlcNAc(b1-3)Gal(b1-4)GlcNAc(b1-2)Man(a1-6)]Man(b1-4)GlcNAc(b1-4)GlcNAc
Summary of the method: as §1

[21] = molecular target: Neu5Gc(a2-3)Gal(b1-4)[Fuc(a1-3)]GlcNAc
Summary of the method: as §1

[22] = molecular target: Neu5Gc(a2-6)Gal(b1-4)GlcNAc
Summary of the method: as §1

Neu5Gc(a2-6)GalNAc = molecular target: Neu5Gc(a2-6)GalNAc
Summary of the method: as §1

[23] = molecular target: Neu5Gc(a2-8)Neu5Ac(a2-3)Gal(b1-4)GlcNAc
Summary of the method: as §1

[24] = molecular target: Neu5Gc(a2-8)Neu5Gc(a2-3)Gal(b1-4)GlcNAc
Summary of the method: as §1

[25] = molecular target: Neu5Gc(a2-8)Neu5Gc(a2-3)Gal(b1-4)GlcNAc(b1-3)Gal(b1-4)GlcNAc
Summary of the method: as §1

[26] = molecular target: Neu5Gc(a2-8)Neu5Gc(a2-6)Gal(b1-4)GlcNAc
Summary of the method: as §1

[27] = molecular target: Neu5Gc(b2-6)Gal(b1-4)GlcNAc
Summary of the method: as §1

B1: RBMC2 (Vibrio cholerae) (protein)
chain: KISVRSGFAIDAIGASASTLVGGTGGNLNAAVNVKDIKAIDLTWGKYYWGGYHLLALDFRMSNGSVISMGSKNYAYSKQTERFTVPAGSRIKGIKAWTAGWLLDGVQFELA
Neu5Ac(a2-8)Neu5Ac
  glycan array binding signal (z-score): -0.379
[1]
  glycan array binding signal (z-score): -0.379
[2]
  glycan array binding signal (z-score): -0.359
[3]
  glycan array binding signal (z-score): -0.438
[4]
  glycan array binding signal (z-score): -0.409
[5]
  glycan array binding signal (z-score): -0.339
[6]
  glycan array binding signal (z-score): -0.162
[7]
  glycan array binding signal (z-score): -0.051
[8]
  glycan array binding signal (z-score): -0.432
[9]
  glycan array binding signal (z-score): -0.36
[10]
  glycan array binding signal (z-score): -0.358
[11]
  glycan array binding signal (z-score): -0.393
[12]
  glycan array binding signal (z-score): -0.401
[13]
  glycan array binding signal (z-score): -0.214
Neu5Ac(b2-6)GalNAc
  glycan array binding signal (z-score): -0.472
[14]
  glycan array binding signal (z-score): -0.326
[15]
  glycan array binding signal (z-score): -0.407
[16]
  glycan array binding signal (z-score): -0.453
[17]
  glycan array binding signal (z-score): -0.218
[18]
  glycan array binding signal (z-score): -0.123
Neu5Gc(a2-3)Gal(b1-4)Glc
  glycan array binding signal (z-score): -0.322
[19]
  glycan array binding signal (z-score): -0.338
[20]
  glycan array binding signal (z-score): 2.28
[21]
  glycan array binding signal (z-score): -0.314
[22]
  glycan array binding signal (z-score): -0.274
Neu5Gc(a2-6)GalNAc
  glycan array binding signal (z-score): -0.283
[23]
  glycan array binding signal (z-score): -0.39
[24]
  glycan array binding signal (z-score): -0.333
[25]
  glycan array binding signal (z-score): -0.257
[26]
  glycan array binding signal (z-score): -0.305
[27]
  glycan array binding signal (z-score): -0.228
